From PubChem BioAssay AID1508642 (National Center for Advancing Translational Sciences (NCATS), 2021)
The whole screen tested about 43,000 compounds, of which about 200 (0.47%) were called active. Inconclusive results (about 12%) are left out. Calls follow the shape of the dose curve; as a rule, active = well fitted cell-killing curve with a large enough effect; inconclusive = small, poorly fitted or top-dose-only effect, or effect the other way; inactive = flat fitted curve, though single readings scatter. Some of the results follow.

Assay: Cell viability qHTS assay in S16 Pmp22-F2sN cells; also: nearly all actives have a fitted effect of over 65% in size
Details: S16 Pmp22-F2sN Schwann cells (luciferase reporters placed in the Pmp22 gene) viability, CellTiter-Glo, 24 h; series mostly up to 57.5 µM; activity change, negative = cytotoxicity: at the top concentration
From the text: Assay Provider: Jim Inglese Ph.D. National Center for Advancing Translational Science, National Institutes of Health, Rockville, MD CMT is a heterogeneous group of neurological disorders that affect approximately 1 in 2,500 people. In particular, the most common form of CMT, CMT1A is genetically linked to the duplication of the PMP22 gene which leads to Schwann cell overexpression, thus manifesting itself as a typical case of dose-sensitive diseases. To identify small molecule compounds that can mediate the expression of PMP22 we developed a phenotypic assay screening strategy by utilizing genome editing techniques to construct Schwann cell lines containing novel reporter technology to monitor the transcriptional or translational regulation of PMP22. For high sensitivity we use a bioluminescent reporter system embedded in the 3' UTR of the PMP22 gene (S16(c9) Pmp22-F2sN) to identify compounds that inhibit gene expression. […] We can further discriminate the effect of all transcriptionally active molecules on PMP22 translation or stability with an assay that incorporates a short NLuc peptide (HiBiT) at the C-terminus of expressed PMP22 (S16(f8) PMP22-HiBiT) allowing alpha complementation and luminescence detection of membrane-associated PMP22 protein. These assays were screened against the NCATS Sytravon Library Collection. Miniaturization of these assays to 1536-well plate format for quantitative high throughput screening (qHTS) yielded rich data sets immediately from the qHTS assay (S16(c9) Pmp22-F2sN), when compared with data from a cell viability assay (Cell TiterGlo) to identify compounds that decreased the output signals through cellular toxicity to streamline the selection process of actives for subsequent characterization using the HiBiT assay (S16(f8) PMP22-HiBiT).
Cell viability assay in S16 Pmp22-F2sN cells PROTOCOL TABLE (format as described by Inglese J, Shamu CE and Guy RK. 2007) SEQUENCE No. (e.g., 1, 2, 3, etc.); […] (e.g., Cells, Incubation, Reagent, etc.); VALUE and DESCRIPTION. 1. Cells. Add 500-1,000 cells in 4 uL in growth media (DMEM High Glucose, No Phenol Red media + 10% heat-inactivated FBS + 1% Pen/Strep supplemented media) per well into Greiner 1536-well white/solid bottom high base, TC-treated plates. 2. Compounds. Library compounds and controls added at 23nL per well, transferred by Pin Tool. 3. Incubation. Incubate plates at 37C, 5% CO2, 95% RH for 24 h. 4. Reagent. Add 3uL CellTiter-Glo per well of Greiner 1536-well plates. 5. Incubation. Incubate plates at room temperature for 15 min., protect from light. 6. Detector. FLuc luminescence measured using CCD-based camera (Viewlux). NOTES (numbers refer to Sequence numbers above; values are from representative experiments) 6. Luminescence Read: Clear filter; Exposure = 1 sec, Gain = High, Speed = Slow, Binning = 2X REFERENCES: 1. Inglese J, Shamu CE and Guy RK, Reporting data from high throughput screening of small molecule libraries, Nature Chemical Biology, 2007, 3(8): 438-441. doi.org/10.1038/nchembio0807-438 2. Yasgar A, Shinn P, Jadhav A, Auld DS, Michael S, Zheng W, Austin CP, Inglese J and Simeonov A, Compound Management for Quantitative High-Throughput Screening. J. Assoc. Lab. Auto., 2008, 13: 79-89. doi: 10.1016/j.jala.2007.12.004
% is scaled to controls: 0 for no effect and ±100 for the full control effect.

Row | Structure (SMILES) | activity change, negative = cytotoxicity
1 | COc1ccc(CNC(=O)C2CCCN(S(=O)(=O)c3cccc4nsnc34)C2)cc1 (stereo unspecified) | inactive: 2.1%
2 | COc1ccccc1NC(=O)C1=C(C)Nc2nc(CCCO)nn2C1c1cccc(O)c1 (stereo unspecified) | inactive: 12.5%
3 | COc1ccc2c(Sc3ccc(C)cc3)c(C(=O)NCc3ccc(F)cc3)[nH]c2c1 | inactive: 10.5%
4 | O=C(Cn1cc(S(=O)(=O)N2CCCC2)c(S(=O)(=O)N2CCCC2)c1)Nc1ccccc1 | inactive: 5.56%
5 | Cn1c(=O)c(=O)n(C)c2cc(S(=O)(=O)N3CCN(c4ccc(F)cc4)CC3)ccc21 | inactive: 1.64%
6 | COc1cc(C2CC(=O)c3cnc(N4CCN(CCO)CC4)nc3C2)cc(OC)c1OC (stereo unspecified) | inactive: 15.1%
7 | CCCC(=O)Nc1cc(C(=O)NCc2ccccc2)ccc1S(=O)(=O)c1ccc(Cl)cc1 | inactive: -22.3%
8 | O=C(CSc1nc2c(oc3ccccc32)c(=O)n1-c1ccccc1)Nc1ccccc1F | inactive: -16.9%
9 | CC(C)c1ccc(NC(=O)CC2NCCNC2=O)cc1 (stereo unspecified) | inactive: 3.34%
10 | Cc1ccc(S(=O)(=O)N2CCCc3cc(NS(=O)(=O)c4cc(F)ccc4F)ccc32)cc1 | inactive: -0.103%
11 | O=C(CCCn1c(=O)c2ccccc2n(Cc2cccc(Cl)c2)c1=O)NCCc1ccc(Cl)cc1 | inactive: -25.7%
12 | COc1cccc(N2CCN(C(=O)C3Cc4ccccc4N3C(C)=O)CC2)c1 (stereo unspecified) | inactive: 1.59%
13 | CCCN(CCC)CCCNC(=O)c1cn(CC)c2ccc(S(=O)(=O)N(C)C3CCCCC3)cc2c1=O | inactive: 0.376%
14 | CCc1ccc(OCc2cc(=O)n3c4c(sc3n2)CCCC4)cc1 | inactive: -10.5%
15 | Cc1ccc(S(=O)(=O)c2nnn3c2nc(NC(C)C)c2sccc23)cc1 | inactive: -7.71%
16 | CCNc1ncnc2c1nnn2C | inactive: -4.04%
17 | CCOC(=O)c1c(C)[nH]c(CCC(=O)Nc2c(C)cccc2CC)c1C | inactive: 5.71%
18 | Cc1cccc(-c2nc3ccccc3n2Cc2ccccc2)c1 | inactive: 12.2%
19 | CCC(=O)Nc1ccccc1-c1nc2ccccc2n(CC(=O)c2ccc(Cl)cc2)c1=O | inactive: 6.57%
20 | CCOC(=O)N1CCc2c(sc(NCc3cccc(F)c3)c2C(=O)Nc2ccc(OC)cc2OC)C1 | inactive: -23.1%
21 | CCOC(=O)C1CCCN(C(=O)C2CCN(S(=O)(=O)c3c(C)noc3/C=C/c3ccccc3F)CC2)C1 (stereo unspecified) | inactive: -2%
22 | Cc1ccccc1NC(=O)Nc1nnc(N2CCCCCC2)s1 | inactive: -2.59%
23 | COc1ccccc1NC(=O)CCn1nc(-c2ccccc2OC)c2c(C)cc(C)nc21 | inactive: -6.6%
24 | CCC(=O)N1CCc2cc(Br)cc(S(=O)(=O)CCC(=O)N3CCN(c4ccc(F)cc4)CC3)c21 | inactive: -19.2%
25 | Cc1cc(C)c(C)c(OCC(=O)Nc2ccc(S(=O)(=O)Nc3nc(C)cc(C)n3)cc2)c1 | inactive: 6.92%
26 | COc1ccc(CC(=O)NCCc2sc3nc(-c4ccc(OC)cc4)nn3c2C)cc1 | inactive: -14.4%
